{"source": "PubChem BioAssay AID485294", "about": "(National Center for Advancing Translational Sciences (NCATS), 2010)", "note": "Screen size: about 370,000 compounds; about 150 (0.041%) were called active. Inconclusive results, whose numbers are uncertain, are shown with a selection of clear calls. Calls come from the whole dose curve; as a rule, active = well fitted inhibition curve with a large enough effect; inconclusive = small, poorly fitted or top-dose-only effect; inactive = flat fitted curve, though single readings scatter. No potency is given beside an inconclusive call; the fits are too rough. Potency is the fitted concentration of half-maximal effect; tags give direction and shape of the fitted curve.", "data": [{"target": "Beta-lactamase (Escherichia coli (strain K12)) (UniProt P00811)", "sequence (P00811 whole entry, looked up)": "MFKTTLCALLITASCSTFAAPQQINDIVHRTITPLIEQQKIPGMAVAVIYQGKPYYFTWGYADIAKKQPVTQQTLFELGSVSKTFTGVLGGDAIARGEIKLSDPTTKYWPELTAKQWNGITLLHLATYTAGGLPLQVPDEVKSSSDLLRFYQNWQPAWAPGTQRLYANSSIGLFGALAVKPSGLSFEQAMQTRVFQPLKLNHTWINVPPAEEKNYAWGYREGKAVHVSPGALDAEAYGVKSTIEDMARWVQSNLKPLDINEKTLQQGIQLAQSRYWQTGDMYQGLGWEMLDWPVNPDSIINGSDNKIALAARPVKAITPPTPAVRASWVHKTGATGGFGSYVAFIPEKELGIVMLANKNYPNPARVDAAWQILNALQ", "assay": "qHTS Inhibitors of AmpC Beta-Lactamase (assay with detergent); note: nearly all actives have a fitted effect of over 25% in size", "details": "AmpC hydrolysis of nitrocefin, absorbance 480 nm, 0.01% Triton; series mostly up to 114 µM", "procedure,_shortened": "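20 mM phosphate pH 7.0 + 0.01% (detergent screen) or 0.0001% Triton X-100; 5.3 nM AmpC reagent; cpd preinc 15 min RT; nitrocefin (800 uM stock) to start; A480 q20 s × 4 min; Activity was normalised to no-enzyme and no-compound control wells.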", "values": [{"compound": "Clc1ccc(Cn2ncc3c(N4CCCCC4)ncnc32)c(Cl)c1", "Potency": "inactive"}, {"compound": "COc1ccc(CCNC(=O)CCCOc2ccc(C)cc2)cc1OC", "Potency": "inconclusive [inhibitor, full curve, poor fit]"}, {"compound": "N#CCSc1ccccc1NC(=O)COc1ccc(-c2nnco2)cc1", "Potency": "inconclusive [inhibitor, full curve, poor fit]"}, {"compound": "COc1ccc(Br)cc1CNC(=O)CCSCc1ccc(Cl)cc1", "Potency": "inactive"}, {"compound": "CC1CCN(S(=O)(=O)c2ccc3c(c2)N(CC(=O)Nc2ccc(F)c(Cl)c2)C(=O)CO3)CC1", "Potency": "inactive"}, {"compound": "COCCC(=O)N1CCC(Oc2ccc(C(=O)N3CCC[C@H]3CO)cc2)CC1", "Potency": "inactive"}, {"compound": "Cc1noc(C)c1CSc1nnc(-c2ccccc2F)n1CCc1ccccc1", "Potency": "inconclusive [inhibitor, full curve]"}, {"compound": "COc1ccc(C(C)NC(=S)NCc2ccc(F)cc2)cc1", "note": "(centres undefined)", "Potency": "inactive"}, {"compound": "O=C(C1CCN(c2nnc(-n3cccc3)s2)CC1)N1CCOCC1", "Potency": "inconclusive [inhibitor, full curve]"}, {"compound": "COc1ccc(C(C(=O)NC2CCCCC2)N(C(=O)Cc2c[nH]c3ccccc23)c2ccccc2C)cc1OC", "note": "(centres undefined)", "Potency": "inconclusive [inhibitor, single point]"}, {"compound": "O=C(c1cnn(-c2nc3ccccc3s2)c1)c1ccccc1O", "Potency": "inconclusive [inhibitor, single point]"}, {"compound": "O=C(NCc1ccccn1)c1cc(S(=O)(=O)N2CCCCC2)ccc1Cl", "Potency": "inconclusive [inhibitor, full curve]"}, {"compound": "CC1(C)CC(NC(=O)c2ccc(-c3ccc([N+](=O)[O-])cc3)o2)CC(C)(C)N1", "Potency": "inactive"}, {"compound": "COc1ccc(C(=O)CSc2nc3cccnc3n2C)cc1", "Potency": "inactive"}, {"compound": "O=C(O)CCCc1ccc2c(c1)CCc1ccccc1-2", "Potency": "inactive"}, {"compound": "CCCn1cc(SCC(=O)Nc2nnc(C)s2)c2ccccc21", "Potency": "inconclusive [inhibitor, full curve, poor fit]"}, {"compound": "O=C(c1cc(-c2ccc(Cl)cc2)n[nH]1)N1CCN(C(=O)c2ccco2)CC1", "Potency": "inconclusive [inhibitor, single point]"}, {"compound": "COc1ccc(N(CC(=O)Nc2cccc(N(C)S(C)(=O)=O)c2)S(=O)(=O)c2ccc(C)cc2)cc1", "Potency": "inactive"}, {"compound": "Cc1cccc(NC(=O)Cn2c(=O)n(Cc3ccc4c(c3)OCO4)c(=O)c3ccccc32)c1", "Potency": "inactive"}, {"compound": "CC1CCCN(S(=O)(=O)c2ccc(NC(=O)C3CCN(C(=O)C(C)(C)C)CC3)cc2)C1", "note": "(centres undefined)", "Potency": "inactive"}, {"compound": "O=C(O)c1ccc(Cn2cnc3scc(-c4ccccc4)c3c2=O)cc1", "Potency": "inconclusive [inhibitor, full curve, poor fit]"}, {"compound": "CCc1cc(C(=O)NN2C(=O)NC3(CCCCC3)C2=O)sc1C", "Potency": "inconclusive [inhibitor, full curve, poor fit]"}, {"compound": "O=C(NCCSCc1ccco1)Nc1cccc(Cl)c1", "Potency": "inactive"}, {"compound": "CCOC(=O)NNc1nncc2ccccc12", "Potency": "inconclusive [inhibitor, full curve]"}, {"compound": "O=C(O)CCCCCN1C(=O)C(=O)/C(=C(/O)c2ccccc2)C1c1ccccc1", "note": "(centres undefined)", "Potency": "inconclusive [inhibitor, single point]"}, {"compound": "COc1cccc(CNCCOCCO)c1OC", "Potency": "inconclusive [inhibitor, full curve]"}, {"compound": "Cc1oc(-c2ccc(Cl)cc2)nc1CN1C(=O)CN=C(c2ccccc2)c2ccccc21", "Potency": "inconclusive [inhibitor, single point]"}, {"compound": "CN(C(=O)COC(=O)CSc1ccc([N+](=O)[O-])cc1)C1CCS(=O)(=O)C1", "note": "(centres undefined)", "Potency": "inconclusive [inhibitor, partial curve, poor fit]"}, {"compound": "Cc1ccc(Oc2cnc3ccccc3n2)cc1", "Potency": "inactive"}, {"compound": "O=C(NCCc1ccc(Cl)cc1)C(=O)Nc1cc2c3c(c1)CC(=O)N3CCC2", "Potency": "inconclusive [inhibitor, full curve, poor fit]"}, {"compound": "CC(=O)c1c(C)[nH]c(C(=O)OCc2ccc(F)cc2Cl)c1C", "Potency": "inconclusive [inhibitor, full curve, poor fit]"}, {"compound": "CC(c1ccccc1)N1C(=O)c2cccnc2C1=O", "note": "(centres undefined)", "Potency": "inconclusive [inhibitor, full curve, poor fit]"}, {"compound": "CCCC12C(=O)C(C)(C(c3ccccc3)=C1c1ccccc1)C1C(=O)N(c3ccc(C)cc3)C(=O)C12", "note": "(centres undefined)", "Potency": "inactive"}, {"compound": "C=CCNc1nc(Cl)nc(Nc2ccccc2)n1", "Potency": "inconclusive [inhibitor, full curve, poor fit]"}, {"compound": "O=C1c2ccsc2SCCN1Cc1c(F)cccc1Cl", "Potency": "inconclusive [inhibitor, full curve, poor fit]"}, {"compound": "Cc1cc(C(=O)Nc2ccc(OCc3ccccc3)cc2)c(C)o1", "Potency": "inactive"}, {"compound": "CC1CCc2cc(F)ccc2N1S(=O)(=O)c1ccc(F)cc1", "note": "(centres undefined)", "Potency": "inconclusive [inhibitor, single point]"}, {"compound": "COc1ccc(NC(=O)CN(c2ccccc2C)S(C)(=O)=O)c(OC)c1", "Potency": "inconclusive [inhibitor, full curve, poor fit]"}, {"compound": "CCN(CC)c1ccc(/C=N/NC(=O)CNC(=O)c2ccccn2)cc1", "Potency": "inconclusive [inhibitor, single point]"}, {"compound": "COc1ccccc1N1CCN(S(=O)(=O)CCNC(=O)c2ccccc2Br)CC1", "Potency": "inconclusive [inhibitor, full curve, poor fit]"}, {"compound": "CCOC(=O)CNC(=O)CSc1ncnc2c1cnn2-c1ccc(OC)cc1", "Potency": "inconclusive [inhibitor, full curve, poor fit]"}, {"compound": "Cc1ccc(C)c(N2CCN(C(=O)Cn3cccc3)CC2)c1", "Potency": "inconclusive [inhibitor, single point]"}, {"compound": "CCOc1c(C(=O)CC)cc2c(C)cc(=O)oc2c1C", "Potency": "inconclusive [inhibitor, single point]"}, {"compound": "N#Cc1c(-c2cccc([N+](=O)[O-])c2)nc2n(c1=O)CCS2", "Potency": "inconclusive [inhibitor, partial curve, poor fit]"}]}]}
